In the supplement of paper PMC3334620:
The full ranking holds about 33,000 sequences; the median of “E-score (-0.5 to 0.5)” is about -0.036, and the highest 2% start at about 0.37. This is one part of the list.

Biological target: T1, Yer064c (UniProt P40041)
T1 sequence: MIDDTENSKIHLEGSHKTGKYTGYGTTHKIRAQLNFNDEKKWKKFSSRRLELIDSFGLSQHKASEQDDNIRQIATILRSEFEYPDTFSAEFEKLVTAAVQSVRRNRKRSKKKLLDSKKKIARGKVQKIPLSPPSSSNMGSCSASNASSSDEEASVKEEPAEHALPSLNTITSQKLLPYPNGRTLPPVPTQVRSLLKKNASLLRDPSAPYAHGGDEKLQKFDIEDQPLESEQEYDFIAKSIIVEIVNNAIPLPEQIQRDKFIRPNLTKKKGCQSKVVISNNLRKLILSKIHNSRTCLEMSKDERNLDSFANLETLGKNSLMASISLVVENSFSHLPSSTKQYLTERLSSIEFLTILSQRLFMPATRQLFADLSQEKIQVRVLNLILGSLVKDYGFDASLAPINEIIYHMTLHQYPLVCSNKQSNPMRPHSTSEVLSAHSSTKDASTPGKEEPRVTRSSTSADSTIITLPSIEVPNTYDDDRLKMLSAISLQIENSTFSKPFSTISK
Experiment: PBM E-score (8-mer binding enrichment) (E-score (-0.5 to 0.5)); higher = stronger / more preferred TF binding; most listed sequences are background and not binding sites
Details: protein concentration: 200 nM; construct: GST-full length
Method: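 Universal 'all 10-mer' protein binding microarrays (Agilent AMADID 015681) probed with GST-tagged S. cerevisiae TFs (full-length or DBD) made by in vitro transcription/translation (PURExpress), about 100-200 nM. Bound TF was detected with fluorescent anti-GST. Each ungapped 8-mer (which stands for itself and its reverse complement) is scored by the PBM enrichment score (E-score), a modified Wilcoxon-Mann-Whitney statistic from -0.5 to +0.5, computed with the Universal PBM Analysis Suite. Scale: above 0.35 generally sequence-specific binding.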

| Sequence | PBM E-score |
| --- | --- |
| ATATCAGG | -0.00963 |
| AATTTCCG | -0.0994 |
| GGGACCCA | -0.0528 |
| ACCCTCAA | -0.0132 |
| AGACGTGA | 0.175 |
| CCGATAGG | -0.111 |
| AACTGAGC | -0.121 |
| CGTCATGC | -0.173 |
| ATCAATGG | 0.176 |
| GTTTGTGA | 0.125 |
| AGACATGG | 0.208 |
| AGGAGAAT | -0.0387 |
| ACTGCCAA | 0.148 |
| AGTTGATC | 0.0925 |
| AGAATATC | -0.0764 |
| ACGAACGA | 0.00195 |
| AAGGTCTC | -0.0115 |
| GCAACGAA | -0.0398 |
| ATCTAAAC | -0.0015 |
| TTCGCAAA | -0.00849 |
| AACCCCTG | -0.0959 |
| AATTGATG | 0.128 |
| ATGACGTC | 0.116 |
| AACAGGTT | -0.0668 |
| AGTTCATG | 0.215 |

| Sequence | PBM E-score |
| --- | --- |
| CAATCAGC | 0.317 |
| CATGCGCC | -0.196 |
| AATTGCAA | -0.15 |
| CCCAGCGC | -0.071 |
| AACAAAAC | -0.102 |
| ACCGACTG | 0.00611 |
| ATAACAGA | 0.0464 |
| CAGTAGGA | -0.145 |
| CACCGGTC | -0.0816 |
| AGGGTTGA | 0.147 |
| AAATCCTT | -0.0617 |
| TACCGGCA | 0.0388 |
| CTCGAATC | 0.187 |
| CCCGGGCA | 0.029 |
| AGACCGGG | -0.232 |
| ACGCAAGG | -0.0851 |
| CATGTCCG | -0.312 |
| AGCGCTAG | -0.0217 |
| CTACCTCA | 0.027 |
| CCTTCAGA | -0.112 |
| CCGGACGA | -1e-05 |
| CACACGCG | -0.0582 |
| AATCTTCC | 0.0855 |
| GAGATTCC | -0.152 |
| AGAAGTCT | 0.148 |

| Sequence | PBM E-score |
| --- | --- |
| ATGTTAGG | -0.0737 |
| ATCTAATG | -0.0531 |
| CCATTAGA | -0.0406 |
| AGAACACC | -0.221 |
| CTACATTA | -0.199 |
| CACAAACA | 0.0738 |
| ACACAAGA | 0.0726 |
| ATTACGAC | 0.209 |
| GAGTCCCA | 0.311 |
| AGTTAGGG | -0.218 |
| AAACTTAA | 0.096 |
| CCCGTTCC | -0.205 |
| AATAGGAG | -0.113 |
| GACGCAGC | -0.352 |
| TAGAAAGA | 0.113 |
| ACTAGGAG | 0.13 |
| AGAAGCGC | -0.141 |
| AATTGAAG | -0.0108 |
| ACTCTTAC | 0.304 |
| CGGTCCGA | -0.0061 |
| AAGTGTAG | -0.0192 |
| AAAAAGTG | 0.0196 |
| GTGTACGA | 0.0297 |
| ACAAGCAC | -0.145 |
| CCTGAAAA | -0.0854 |

| Sequence | PBM E-score |
| --- | --- |
| ATAGTGAT | 0.139 |
| GCCCAGAC | -0.355 |
| CCGGTCGC | -0.0954 |
| AATAAGTA | -0.00487 |
| ATCTTTCA | -0.0692 |
| AGTCTTGC | 0.291 |
| AGTCCAAC | 0.108 |
| GGGGTTCA | -0.156 |
| AGATTTGA | 0.171 |
| GCGCCCTA | -0.186 |
| AAGCCCTT | -0.102 |
| AGGGGACG | -0.313 |
| CATACCCA | 0.124 |
| CTGGTTCA | 0.108 |
| AGAACAAC | -0.259 |
| CGACACTA | -0.0389 |
| CATTTATA | 0.176 |
| GCCGTGGA | -0.134 |
| AGTAAAAT | 0.199 |
| ATTGGAAA | -0.0751 |
| AACCACAC | 0.0277 |
| TATCAATA | -0.0261 |
| GTACCTTA | 0.0141 |
| CAATGCAA | -0.0727 |
| GCCTAACA | 0.00393 |

| Sequence | PBM E-score |
| --- | --- |
| CTGACAGA | 0.0357 |
| CGGAGACC | -0.18 |
| CTATTAAG | -0.0862 |
| TCACGGAA | 0.0488 |
| AGCCGCCA | 0.00272 |
| CGGGCTCA | -0.131 |
| AAGCATCC | -0.42 |
| GTGTTACA | 0.0612 |
| GACGACAA | 0.0426 |
| AAACGCTA | 0.00495 |
| AGGCGATA | -0.126 |
| GCCGTAGC | -0.273 |
| CGTCAGAG | -0.136 |
| ATGTCCCG | -0.154 |
| GGGCCTAC | -0.327 |
| CACTGGCG | -0.0189 |
| CCTACAAA | -0.0658 |
| GCACCACC | -0.429 |
| AGACCCGG | -0.0102 |
| CGGTGAGA | 0.094 |
| ACCCGAGA | -0.0768 |
| ACTGTGCT | -0.0468 |
| CAATACAC | 0.0718 |
| AAGCCGAA | 0.0789 |
| ACTGACTA | 0.447 |

| Sequence | PBM E-score |
| --- | --- |
| GTTTAATA | 0.126 |
| ACCTCTAT | -0.212 |
| CCGTACCC | -0.188 |
| CGCCGCCA | -0.145 |
| AAAACCTA | -0.155 |
| AAGTAAAA | 0.0955 |
| AATCCAAG | 0.0868 |
| TACCTATA | -0.103 |
| TCCGGACA | -0.199 |
| GCTCGTAA | -0.103 |
| ACTCGGCA | 0.0706 |
| GCCACTAA | 0.0205 |
| GCACACAA | -0.0167 |
| AAGTGTCA | -0.0462 |
| AGGGAGAT | -0.11 |
| AAGTGAAC | -0.0697 |
| CAAATGTG | 0.0204 |
| GTGCTCCA | -0.192 |
| ACAAAAGC | 0.0026 |
| ATGATACC | -0.135 |
| AACGCTGC | -0.21 |
| GTAGGTGA | 0.0923 |
| CGTAAGCC | -0.198 |
| TCAGATGA | 0.298 |
| AGTAATAG | -0.00571 |

| Sequence | PBM E-score |
| --- | --- |
| AGGGGCCA | -0.256 |
| CTCGACTA | 0.299 |
| CGATGGCC | -0.148 |
| CAGGGCAC | -0.229 |
| GCAGTACC | -0.0237 |
| TACACGGA | 0.0134 |
| GCCACAGC | -0.0981 |
| ATCTGTAG | -0.0362 |
| AAGCGACG | -0.25 |
| AACTCAAA | 0.189 |
| TATCTAAA | 0.0652 |
| AAAAAGCC | 0.0279 |
| AGATTGTA | 0.0108 |
| ATGGGGAG | -0.0664 |
| GGTTTCGA | -0.0361 |
| CCGGTAAG | -0.0744 |
| GCGCTCTA | -0.11 |
| TAACGCGA | -0.115 |
| GATCGCGA | 0.0739 |
| TGACGAAA | 0.0822 |
| TACGGAGA | 0.178 |
| CTGTACAA | -0.0149 |
